The IC50 comes from the fitted curve, where viability falls to half of the control; fits outside the tested doses are given as limits. The AUC spans the tested range (256-fold, ending at the top dose) of the same fit; values near 1 show little effect. Where an entry number is given, a second screen of the drug exists; the two often differ.
Compound: CS(=O)(=O)N1CCN(Cc2cc3nc(-c4cccc5[nH]ncc45)nc(N4CCOCC4)c3s2)CC1 [GDC0941]
Assay: Viability of human cancer cell lines after 72 h of drug (GDSC screen)
Details: screen: GDSC drug entry 1058
Method: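 Human cancer cell lines in 384-well plates, medium with 10% serum, drug for 72 h over a 256-fold dose range (nine 2-fold or five 4-fold steps up to the top dose). Adherent lines were fixed and stained with the nucleic acid dye Syto60, suspension lines read with resazurin; signal relative to control wells, capped at 0 and 100%. One two-parameter sigmoid per drug and line, fitted in a mixed model over all curves with the slope shared within a line.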

Row | Cell Line | AUC | IC50 [µM]
1 | HCC1954 (breast, adherent, top dose 4 µM) | 0.949 | > 4
2 | RH-1 (rhabdomyosarcoma, adherent, top dose 4 µM) | 0.968 | > 4
3 | ARH-77 (myeloma, suspension, top dose 4 µM) | 0.987 | > 4
4 | NB13 (neuroblastoma, adherent, top dose 4 µM) | 0.951 | > 4
5 | TE-1 (oesophagus, adherent, top dose 4 µM) | 0.862 | > 4
6 | Jurkat (T-cell leukaemia, suspension, top dose 4 µM) | 0.992 | > 4
7 | ESO26 (oesophagus, adherent, top dose 4 µM) | 0.712 | 0.951
8 | L-1236 (Hodgkin lymphoma, suspension, top dose 4 µM) | 0.702 | 0.834
9 | SBC-5 (small cell lung carcinoma, adherent, top dose 4 µM) | 0.924 | > 4
10 | RERF-LC-KJ (lung adenocarcinoma, adherent, top dose 4 µM) | 0.811 | 2.21
11 | CAL-39 (cervix, adherent, top dose 4 µM) | 0.782 | 1.74
12 | Ca-Ski (cervix, adherent, top dose 4 µM) | 0.664 | 0.76
13 | HCC2218 (breast, suspension, top dose 4 µM) | 0.751 | 1.62
14 | NCI-H1437 (lung adenocarcinoma, adherent, top dose 4 µM) | 0.672 | 0.772
15 | JHU-022 (head and neck, adherent, top dose 4 µM) | 0.676 | 0.891
16 | NCC021 (kidney, adherent, top dose 4 µM) | 0.716 | 1.15
17 | BE-13 (lymphoblastic leukaemia, suspension, top dose 4 µM) | 0.857 | 2.92
18 | ALL-SIL (T-cell leukaemia, suspension, top dose 4 µM) | 0.746 | 1.12
19 | DB (B-cell lymphoma, suspension, top dose 4 µM) | 0.887 | > 4
20 | NCI-H1417 (small cell lung carcinoma, suspension, top dose 4 µM) | 0.75 | 1.53
21 | NCI-H1105 (small cell lung carcinoma, suspension, top dose 4 µM) | 0.901 | 3.53

Row | Cell Line | AUC | IC50 [µM]
22 | JHOS-2 (ovary, adherent, top dose 4 µM) | 0.514 | 0.275
23 | MEG-01 (chronic myeloid leukaemia, suspension, top dose 4 µM) | 0.961 | > 4
24 | COLO-679 (melanoma, adherent, top dose 4 µM) | 0.972 | > 4
25 | NB69 (neuroblastoma, adherent, top dose 4 µM) | 0.498 | 0.247
26 | 647-V (bladder, adherent, top dose 4 µM) | 0.856 | 3.26
27 | MEL-HO (melanoma, adherent, top dose 4 µM) | 0.778 | 1.64
28 | HCC1187 (breast, suspension, top dose 4 µM) | 0.907 | > 4
29 | GA-10 (Burkitt lymphoma, suspension, top dose 4 µM) | 0.465 | 0.204
30 | LN-229 (glioma, adherent, top dose 4 µM) | 0.983 | > 4
31 | PC-14 (lung adenocarcinoma, adherent, top dose 4 µM) | 0.87 | 3.05
32 | KARPAS-231 (B-cell leukaemia, suspension, top dose 4 µM) | 0.234 | 0.0536
33 | JHU-011 (head and neck, adherent, top dose 4 µM) | 0.58 | 0.413
34 | KU812 (chronic myeloid leukaemia, suspension, top dose 4 µM) | 0.883 | 3.63
35 | CTB-1 (B-cell lymphoma, suspension, top dose 4 µM) | 0.733 | 1.5
36 | RCC-JW (kidney, adherent, top dose 4 µM) | 0.652 | 0.666
37 | PANC-10-05 (pancreas, adherent, top dose 2 µM) | 0.921 | > 2
38 | IM-9 (myeloma, suspension, top dose 4 µM) | 0.985 | > 4
39 | NCI-H1048 (small cell lung carcinoma, adherent, top dose 4 µM) | 0.779 | 1.46
40 | Farage (B-cell lymphoma, suspension, top dose 4 µM) | 0.34 | 0.0983
41 | EMC-BAC-1 (lung adenocarcinoma, adherent, top dose 4 µM) | 0.737 | 1.33

— the supplement of paper PMC4967469
